PubChem BioAssay AID504339 (National Center for Advancing Translational Sciences (NCATS), 2011)
In all, about 390,000 compounds went through this assay and about 17,000 (4.4%) were called active. The inconclusive results got no clear call from the source; some entries with a clear call stand among them for comparison. Calls follow the shape of the dose curve; as a rule, active = well fitted inhibition curve with a large enough effect; inconclusive = small, poorly fitted or top-dose-only effect; inactive = no such curve, though single readings can be large or run the other way. A potency beside an inconclusive call is a rough fit, not a confirmed value.

Each compound was assayed against Lysine-specific demethylase 4A (Homo sapiens) (UniProt O75164) (assay: qHTS Assay for Inhibitors of JMJD2A-Tudor Domain). Conditions: AlphaScreen JMJD2A-Tudor / H3K4me3 peptide binding; series mostly up to 114 µM.
Also: nearly all actives have a fitted effect of over 50% in size.
Potency is read from the fitted curve at half-maximal effect; tags tell the direction and shape of the fitted curve.

Sequence of UniProt O75164 (O75164 whole entry, looked up, the tested form may be a part): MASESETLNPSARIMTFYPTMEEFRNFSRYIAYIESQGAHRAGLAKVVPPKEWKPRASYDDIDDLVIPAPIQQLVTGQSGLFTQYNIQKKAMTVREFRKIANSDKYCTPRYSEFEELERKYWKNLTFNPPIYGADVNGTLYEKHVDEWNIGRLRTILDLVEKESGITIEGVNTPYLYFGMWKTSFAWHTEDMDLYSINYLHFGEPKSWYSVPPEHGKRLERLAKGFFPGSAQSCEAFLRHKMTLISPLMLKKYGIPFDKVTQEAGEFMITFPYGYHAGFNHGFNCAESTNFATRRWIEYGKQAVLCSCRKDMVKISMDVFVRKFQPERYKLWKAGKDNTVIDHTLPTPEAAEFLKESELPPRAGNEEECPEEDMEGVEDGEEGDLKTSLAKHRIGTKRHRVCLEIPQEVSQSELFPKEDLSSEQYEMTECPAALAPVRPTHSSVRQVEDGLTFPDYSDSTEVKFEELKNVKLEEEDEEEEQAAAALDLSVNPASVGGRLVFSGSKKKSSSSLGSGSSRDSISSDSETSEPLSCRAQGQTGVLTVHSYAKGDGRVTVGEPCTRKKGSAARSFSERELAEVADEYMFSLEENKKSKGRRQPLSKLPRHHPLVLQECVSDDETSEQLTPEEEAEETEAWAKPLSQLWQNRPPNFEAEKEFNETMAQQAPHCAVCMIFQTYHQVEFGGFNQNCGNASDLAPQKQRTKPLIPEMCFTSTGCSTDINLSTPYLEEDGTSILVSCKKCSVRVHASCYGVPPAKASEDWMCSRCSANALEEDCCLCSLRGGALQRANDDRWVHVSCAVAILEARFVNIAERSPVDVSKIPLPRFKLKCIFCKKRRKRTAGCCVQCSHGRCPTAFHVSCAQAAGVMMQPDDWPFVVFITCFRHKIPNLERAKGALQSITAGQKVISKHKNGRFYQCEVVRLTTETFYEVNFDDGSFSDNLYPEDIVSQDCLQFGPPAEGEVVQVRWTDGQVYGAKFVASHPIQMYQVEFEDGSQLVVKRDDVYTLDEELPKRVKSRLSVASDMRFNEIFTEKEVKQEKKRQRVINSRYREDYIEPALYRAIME

For `Cc1cccc(NC(=O)CNC(=O)COc2cc(F)ccc2[N+](=O)[O-])c1C`, which Potency is on record?
The Potency was inconclusive: 12.6 µM [inhibitor, full curve].

Which Potency does the source give for `O=c1[nH]c(CSc2nnc(Nc3ccccc3)s2)nc2ccccc12` here?
The Potency was inconclusive: 22.4 µM [inhibitor, full curve, poor fit].

For `CC(=O)N1N=C(c2ccc(Br)cc2)CC1c1cn(C)c2ccccc12` (stereo unspecified), which Potency is on record?
Its Potency is inconclusive: 39.8 µM [inhibitor, partial curve].

For `CCOC(=O)N1CCC(NC(=O)c2ccc3c(c2)N(Cc2ccc(C)cc2)CCS3)CC1`, which Potency is on record?
The Potency was “inactive”.

Which Potency does the source give for `COC(=O)c1ccc(NC(=S)NC(=O)C2CCC2)cc1` here?
Its Potency is “inactive”.

Which Potency does the source give for `O=C1NC(C(=O)O)=CC(c2ccc([N+](=O)[O-])cc2)N1` (stereo unspecified) here?
Its Potency is active: 17.8 µM.

`Cc1cccc(-n2c(SCC(N)=O)nc3c(c2=O)C2(CCCCC2)Cc2ccccc2-3)c1` was tested. Which Potency did it give?
The Potency was inconclusive: 35.5 µM [inhibitor, full curve, poor fit].

With `CCOC(=O)CSc1nnc(CNC(=O)c2cccs2)n1Cc1ccccc1` as the compound, how does the Potency read?
The Potency was “inactive”.

Which Potency does the source give for `Cc1ccc2[nH]c3c(c2c1)CN(C(=O)CN1CCCc2ccccc21)CC3` here?
The Potency was active: 28.2 µM.

For `Cc1ccc(CNC(=O)CNC(=S)N(Cc2ccccc2)Cc2cccnc2)cc1`, which Potency is on record?
The Potency was “inactive”.

Which Potency does the source give for `O=C(O)c1cccn2c(=O)c3ccccc3nc12` here?
The Potency was active: 79.4 µM.

How did the Potency turn out when `CC(C)(C)NC(=O)C(c1ccncc1)N(C(=O)C1CSC(=O)C1)c1ccccc1` (stereo unspecified) was run?
The Potency was “inactive”.

For `Cc1[nH]n(-c2ccccc2)c(=O)c1N=Nc1ccccc1O`, which Potency is on record?
Its Potency is inconclusive: 31.6 µM [inhibitor, partial curve].

`CCn1c(=O)c2cc(C(=O)N(CC(C)C)CC(C)C)sc2c2ccccc21` was tested. Which Potency did it give?
Its Potency is “inactive”.

For `CCOc1ccc(CCNC(=O)c2csc3c2CCCCC3)cc1`, which Potency is on record?
Its Potency is “inactive”.

How did the Potency turn out when `COC(=O)c1c[nH]n2c(=O)cc(CCl)nc12` was run?
The Potency was active: 79.4 µM.

Which Potency does the source give for `COc1ccc(Br)cc1CNC(=O)C1CCN(C(=O)N(C)C)CC1` here?
The Potency was inconclusive: 70.8 µM [inhibitor, single point].

Which Potency does the source give for `CN(CC(=O)Nc1ccc(S(N)(=O)=O)cc1)Cc1ccccc1F` here?
The Potency was “inactive”.

How did the Potency turn out when `COc1ccccc1NC(=O)Nc1nc(CC(=O)Nc2ccc(F)cc2)cs1` was run?
Its Potency is “inactive”.

For `Nc1[nH]ncc1-c1ccc(Cl)cc1`, which Potency is on record?
Its Potency is inconclusive: 17.8 µM [inhibitor, single point].

`COc1cccc(C(=O)N2CCc3c([nH]c4ccccc34)C2c2ccc(SC)cc2)c1` (stereo unspecified) was tested. Which Potency did it give?
The Potency was inconclusive: 35.5 µM [inhibitor, partial curve].

`CC(=O)c1cc2c(cc1NC(=O)CN1CCCCC1C)OCO2` (stereo unspecified) was tested. Which Potency did it give?
The Potency was active: 20 µM.

How did the Potency turn out when `Cc1ccc(SCC(=O)Nc2ccc(F)cc2[N+](=O)[O-])cc1C` was run?
Its Potency is inconclusive: 11.2 µM [inhibitor, partial curve].

How did the Potency turn out when `O=C(O)CC(C(=O)O)N1C(=O)/C(=C/C=C/c2ccco2)SC1=S` (stereo unspecified) was run?
The Potency was active: 3.55 µM.

Which Potency does the source give for `CNc1nnc(-c2ccc(N(C)C)cc2)s1` here?
Its Potency is “inactive”.

How did the Potency turn out when `Cc1ccc(N2C(=O)[C@@H]3[C@H](C2=O)[C@H]2C=CC=NN2[C@@H]3C(=O)Nc2ccccc2)cc1` was run?
Its Potency is “inactive”.

How did the Potency turn out when `CCCS(=O)(=O)N1CCN(CC2CC=CCC2)CC1` (stereo unspecified) was run?
The Potency was active: 0.891 µM.

For `O=c1c2sc3ccccc3c2n(Cc2cccc(C(F)(F)F)c2)c(=O)n1Cc1ccco1`, which Potency is on record?
The Potency was “inactive”.

How did the Potency turn out when `N#Cc1nc(COc2ccc(Cl)cc2Cl)oc1N1CCOCC1` was run?
Its Potency is inconclusive: 39.8 µM [inhibitor, partial curve].

`Cc1ccc(Cn2c(C(C)Nc3nc(-c4ccc(F)cc4)cs3)nc3cc(C(=O)NCCCO)ccc32)cc1` (stereo unspecified) was tested. Which Potency did it give?
The Potency was “inactive”.

Which Potency does the source give for `CCOC(=O)C(=NC(C)C)NNc1cc(Cl)ccc1Cl` here?
Its Potency is inconclusive: 44.7 µM [inhibitor, partial curve].

`COc1cccc(C(=O)Oc2ccc(/C=N/Nc3ccc(C(=O)O)cc3)cc2OC)c1` was tested. Which Potency did it give?
Its Potency is inconclusive: 50.1 µM [inhibitor, partial curve].

`Cc1ccc(-c2cc(C(=O)N3CCN(c4ccccc4O)CC3)c3ccccc3n2)o1` was tested. Which Potency did it give?
The Potency was inconclusive: 39.8 µM [inhibitor, partial curve].

`O=C(O)CCNc1ccc(NCCC(=O)O)c2c1C(=O)c1ccccc1C2=O` was tested. Which Potency did it give?
Its Potency is active: 22.4 µM.

For `Cc1cc(C)c(-c2csc(NC(=O)c3cc([N+](=O)[O-])ccc3N3CCOCC3)n2)c(C)c1`, which Potency is on record?
The Potency was inconclusive: 28.2 µM [inhibitor, partial curve].

For `CCOc1ncccc1C(=O)Nc1cc(S(=O)(=O)N2CCCCC2)ccc1OC`, which Potency is on record?
The Potency was “inactive”.

How did the Potency turn out when `COc1ccc(OC)c(N)c1` was run?
The Potency was inconclusive: 89.1 µM [inhibitor, single point].

With `CCOc1ccc(/C(O)=C2\C(=O)C(=O)N(c3ccc(OC)cc3)C2c2ccccc2[N+](=O)[O-])cc1` (stereo unspecified) as the compound, how does the Potency read?
The Potency was inconclusive: 35.5 µM [inhibitor, partial curve, poor fit].

With `COc1cccc(CN2CCN(C(c3ccccc3)c3ccccc3)CC2)c1O` as the compound, how does the Potency read?
The Potency was active: 50.1 µM.

Which Potency does the source give for `Cc1cc(C(=O)c2ccc(C(C)(C)C)cc2)c(NC(=O)CCl)s1` here?
The Potency was inconclusive: 35.5 µM [inhibitor, partial curve].

`Cc1cccc(N2CCN(Cc3nc(-c4ccc(F)cc4F)oc3C)CC2)n1` was tested. Which Potency did it give?
Its Potency is inconclusive: 50.1 µM [inhibitor, partial curve].

Which Potency does the source give for `O=C(CCn1c(=O)sc2ccccc21)NC1CCCCC1` here?
The Potency was “inactive”.

`Cc1cn(CCC(=O)Nc2ccc(N3CCOCC3)cc2)c2ccccc12` was tested. Which Potency did it give?
The Potency was inconclusive: 50.1 µM [inhibitor, partial curve].

For `Oc1ccc(/C=N/N2CCCCC2)c(O)c1O`, which Potency is on record?
The Potency was active: 8.91 µM.

For `Cc1ccc(-c2ccc3nnc(SCC(N)=O)n3n2)cc1`, which Potency is on record?
The Potency was “inactive”.

`COc1cccc(C2C(C(=O)Nc3ccccc3OC)=C(C)Nc3nc4ccccc4n32)c1` (stereo unspecified) was tested. Which Potency did it give?
The Potency was “inactive”.

Which Potency does the source give for `Cc1ccc(S(=O)(=O)N(CC(=O)NCc2ccco2)Cc2ccccc2F)cc1` here?
Its Potency is inconclusive: 50.1 µM [inhibitor, partial curve].

How did the Potency turn out when `CCOC(=O)Cc1csc(NC(=O)c2sc3nc4cc(C)ccc4cc3c2N)n1` was run?
The Potency was active: 39.8 µM.

Which Potency does the source give for `Cc1cc(C)n2c(SCC(=O)Nc3ccc(F)cc3F)nnc2n1` here?
Its Potency is active: 89.1 µM.

`CCOC(=O)c1c(NC(=O)c2cc(=O)c3c(C)cc(C)cc3o2)sc(C(C)=O)c1C` was tested. Which Potency did it give?
Its Potency is “inactive”.

With `COCc1nnc(NC(=O)c2ccc(S(=O)(=O)N3CCCC3)cc2)o1` as the compound, how does the Potency read?
Its Potency is active: 12.6 µM.

Which Potency does the source give for `Cc1ccc(OCC(=O)Nc2cc(S(=O)(=O)N3CCOCC3)ccc2Cl)c([N+](=O)[O-])n1` here?
Its Potency is inconclusive: 25.1 µM [inhibitor, full curve, poor fit].

For `CCOC(=O)c1cc(-c2ccccc2)n(CCC(=O)NC(C)CC)c1C` (stereo unspecified), which Potency is on record?
The Potency was “inactive”.

Which Potency does the source give for `COc1ccc(-c2nc(C#N)c(NCCc3ccccc3)o2)cc1` here?
Its Potency is “inactive”.

How did the Potency turn out when `N#C/C(=C/c1ccc(N2CCOCC2)o1)c1nc2ccccc2[nH]1` was run?
Its Potency is inconclusive: 11.2 µM [inhibitor, partial curve].

`COc1ccc(CNc2nc(=S)[nH]c3cc(OC)c(OC)cc23)cc1` was tested. Which Potency did it give?
The Potency was inconclusive: 20 µM [inhibitor, single point].

With `CCn1c(SCc2ccccc2Cl)nc(=O)c2c(C(=O)OC)cc(C3CC3)nc21` as the compound, how does the Potency read?
The Potency was “inactive”.

For `Cc1nc(-c2ccc(O)c(O)c2)cs1`, which Potency is on record?
The Potency was active: 3.98 µM.

`CC(C)NC(=O)C1CCN(C(=O)N2CCOc3ccc(Cl)cc32)CC1` was tested. Which Potency did it give?
The Potency was inconclusive: 50.1 µM [inhibitor, partial curve].

For `CCN(CC)c1ccc(NC(=O)CCCOc2cccc(C)c2)cc1`, which Potency is on record?
The Potency was active: 10 µM.

With `NS(=O)(=O)c1ccc(CCNCC(=O)NCc2ccccc2Cl)cc1` as the compound, how does the Potency read?
Its Potency is active: 28.2 µM.

Which Potency does the source give for `COc1ccc(/C=C(/C(=O)c2cccs2)N2C=CC=CC2=C(C#N)C#N)cc1` here?
The Potency was inconclusive: 31.6 µM [inhibitor, full curve].

Which Potency does the source give for `O=C(COC(=O)C1CC(=O)N(Cc2ccco2)C1)c1ccc(OC(=O)c2ccccc2)cc1` (stereo unspecified) here?
The Potency was inconclusive: 31.6 µM [inhibitor, single point].

Which Potency does the source give for `Cc1ccc(N=C2C(=O)Nc3ccc(Br)cc32)cc1` here?
The Potency was inconclusive: 11.2 µM [inhibitor, full curve].

With `Cc1ccc(SC[C@H](CC(C)C)N2CCN(CCc3ccccc3)CCC2=O)cc1` as the compound, how does the Potency read?
Its Potency is inconclusive: 50.1 µM [inhibitor, partial curve].

How did the Potency turn out when `COC(=O)CCCC1=CC2=CC(=O)C(C)(OC(=O)c3cccs3)C(=O)C2=CN1Cc1ccccc1` (stereo unspecified) was run?
The Potency was “inactive”.

For `Cc1cc(NC(=O)CN2CCCCC2)no1`, which Potency is on record?
The Potency was inconclusive: 3.16 µM [inhibitor, full curve, poor fit].

With `CC(/C=N/NC(=O)c1sc(N)nc1C)=C\c1ccccc1` as the compound, how does the Potency read?
The Potency was “inactive”.

With `CC(=O)c1ccc(NC(=O)c2noc3c2CCc2ccccc2-3)cc1` as the compound, how does the Potency read?
Its Potency is inconclusive: 44.7 µM [inhibitor, full curve, poor fit].

Which Potency does the source give for `COc1ccc(N2CCN(C3CCCCC3NS(=O)(=O)c3ccc(Cl)cc3)CC2)cc1` (stereo unspecified) here?
Its Potency is inconclusive: 31.6 µM [inhibitor, partial curve].

For `O=C(COc1ccccc1)Nc1ccncc1Cl`, which Potency is on record?
Its Potency is “inactive”.

How did the Potency turn out when `COc1ccc(CN2C(=O)[C@@H]3Cc4c([nH]c5ccccc45)C(C)(C)N3C2=O)cc1` was run?
Its Potency is inconclusive: 44.7 µM [inhibitor, partial curve].

Which Potency does the source give for `Cc1ccc(-n2[nH]c(C)c(/C=N/NC(=O)c3ccc(O)cc3O)c2=O)cc1` here?
Its Potency is active: 31.6 µM.

For `CCCCn1c(=O)[nH]c(=O)c2c1nc(Cn1ncc(Cl)c(Cl)c1=O)n2CCC`, which Potency is on record?
Its Potency is inconclusive: 17.8 µM [inhibitor, full curve].

With `CC(=O)Oc1ccc(C(C)=O)c2c1OCCO2` as the compound, how does the Potency read?
Its Potency is “inactive”.

With `CCCN1C(C(=O)c2ccccc2)=C(OC(=O)COc2ccccc2)c2ccccc2S1(=O)=O` as the compound, how does the Potency read?
The Potency was inconclusive: 15.8 µM [inhibitor, full curve].
